# Laboratory results taken from PubChem BioAssay (Tox21).
# Values joined by “and” are separate entries in the source; they are usually repeats but may differ in a detail not shown here. Identical values can stand only once. Inconclusive means that the source gave no clear call. Such entries were picked first, then a sample of the others. For some assays here: Potencies of inconclusive entries are doubtful fits and often do not repeat. More than one record can exist for a structure, and the calls need not agree. Active and inactive are the calls of the source. Unless noted, calls come from the whole dose curve; as a rule, active = well fitted curve in the direction sought with a large enough effect in the repeat runs; inconclusive = weak or mixed curves; inactive = no such curve, though single readings can be large; an effect the other way counts as inactive or inconclusive.
# How the values were obtained:
# [1] = qHTS assay for identifying genotoxic compounds that show differential cytotoxicity against isogenic chicken DT40 cell lines with known DNA damage response pathways - wild type cell line (AID 743012); conditions: DT40 wild type chicken cells viability, CellTiter-Glo, 40 h; activity change, negative = cytotoxicity: at 68.4 µM (top of the series) unless noted; note: nearly all actives have a fitted effect of over 60% in size; note: potency is the fitted concentration of half-maximal effect
# Summary of the method: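 First, wild type DT40 cells were plated at 300 per well and equilibrated about 0.5 h at 37 C/5% CO2. Next, compounds in DMSO were added and exposure lasted 40 h. Finally, CellTiter-Glo was added for 30 min at room temperature and luminescence recorded.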
# [2] = qHTS assay to identify small molecule antagonists of the androgen receptor (AR) signaling pathway - cell viability counter screen (AID 743033; note: nearly all actives have a fitted effect of over 45% in size; note: potency is the fitted concentration of half-maximal effect); conditions: AR-bla HEK293 viability, CellTiter-Glo luminescence, 16 h; activity change, negative = cytotoxicity: at 58.5 µM (top of the series) unless noted
# [3] = qHTS assay to identify small molecule antagonists of the androgen receptor (AR) signaling pathway using the MDA cell line - cell viability counter screen (AID 743041; note: nearly all actives have a fitted effect of over 45% in size; note: potency is the fitted concentration of half-maximal effect); conditions: MDA-kb2 viability, CellTiter-Fluor, 16 h, cells co-treated with R1881 androgen agonist; viability change, negative = cytotoxic: at 70.3 µM (top of the series) unless noted
# Summary of the method: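 Viability counter screen run alongside the AR antagonist reporter: cells seeded 5 h before compound, R1881 added, 16 h incubation at 37C without CO2, fluorescent CellTiter-Fluor signal quantified.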
# [4] = tested on: thyroid hormone receptor (rat, GH3 cells); assay: qHTS assay to identify small molecule agonists of the thyroid receptor (TR) signaling pathway (AID 743066; calls by dose curve; note: potency is the fitted concentration of half-maximal effect; for activation: % is set by controls: 0 for no effect and ±100 for the full control effect); conditions: GH3.TRE-Luc cells, TR agonist luciferase, 24 h; activation: at 83.9 µM (top of the series) unless noted
# [5] = qHTS assay to identify small molecule antagonists of the estrogen receptor alpha (ER-alpha) signaling pathway - cell viability counter screen (AID 743074; calls by dose curve;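 note: HEK293 cells carrying ER-alpha-UAS-bla reporter stimulated with 17beta-estradiol; nearly all actives have a fitted effect of over 45% in size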; note: potency is the fitted concentration of half-maximal effect)
# [6] = qHTS assay to identify small molecule antagonists of the estrogen receptor alpha (ER-alpha) signaling pathway using the BG1 cell line - cell viability counter screen (AID 743081); conditions: BG1Luc4E2 viability, CellTiter-Fluor, 22 h; activity change, negative = cytotoxicity: at 70.3 µM (top of the series) unless noted;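 note: compound given together with 17beta-estradiol as the ER stimulus; nearly all actives have a fitted effect of over 45% in size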; note: potency is the fitted concentration of half-maximal effect; for activity change, negative = cytotoxicity: % is set by controls: 0 for no effect and ±100 for the full control effect
# [7] = biological target: Androgen receptor (Homo sapiens) (UniProt P10275); assay: qHTS assay to identify small molecule antagonists of the androgen receptor (AR) signaling pathway (AID 743035; active = well fitted inhibition curve with a large enough effect in the signal ratio in the repeat runs, not every such curve was filed as active; inconclusive = weak or mixed curves, or effect the other way; inactive = no such curve, though single readings can be large or run the other way; the % refers to the signal ratio; note: % is set by controls: 0 for no effect and ±100 for the full control effect); conditions: HEK293 AR-UAS-bla, R1881-stimulated, beta-lactamase FRET, 16 h; activity change, negative = inhibition: at 58.5 µM (top of the series) unless noted
# Summary of the method: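 Beta-lactamase FRET read (2 h RT incubation with LiveBLAzer B/G) following 16 h of compound plus R1881 treatment of AR-UAS-bla HEK293 cells, which had been pre-incubated 4 h at 37C.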
# [8] = biological target: Androgen receptor (Homo sapiens) (UniProt P10275); assay: qHTS assay to identify small molecule antagonists of the androgen receptor (AR) signaling pathway using the MDA cell line (AID 743042; note: potency is the fitted concentration of half-maximal effect; nearly all actives have a fitted effect of over 55% in size)
# Summary of the method: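 MDA-kb2 cells (human breast carcinoma, stably carrying an MMTV-luciferase reporter responsive to AR and GR) were plated at 3,000 cells/well and preincubated 5 hr at 37C, then given compound plus R1881 agonist for 16 h. ONE-Glo luminescence was read.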
# [9] = qHTS assay to identify small molecule antagonists of the thyroid receptor (TR) signaling pathway (AID 743065); note: potency is the fitted concentration of half-maximal effect; nearly all actives have a fitted effect of over 55% in size
# Summary of the method: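 GH3.TRE-Luc rat pituitary cells carrying two TR response elements driving luciferase were plated for 4 h, given compound plus 1 nM T3 (final), and incubated 23.5 h at 37 C. ONE-Glo luminescence measured reporter inhibition; CellTiter-Fluor fluorescence tracked cytotoxicity.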
# [10] = qHTS assay to identify small molecule antagonists of the thyroid receptor (TR) signaling pathway - cell viability counter screen (AID 743064); conditions: GH3.TRE-Luc viability, CellTiter-Fluor, 24 h; activity change, negative = cytotoxic: at 70.3 µM (top of the series) unless noted; note: potency is the fitted concentration of half-maximal effect; nearly all actives have a fitted effect of over 50% in size
# Summary of the method: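 GH3.TRE-Luc rat pituitary cells carrying a TRE-luciferase reporter were treated with compound plus 1 nM T3 (final) for 23.5 h at 37 °C. Viability was then read in the same wells by CellTiter-Fluor fluorescence after a further 30 min.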
# [11] = biological target: Estrogen receptor (Homo sapiens) (UniProt P03372); assay: qHTS assay to identify small molecule agonists of the estrogen receptor alpha (ER-alpha) signaling pathway using the BG1 cell line (AID 743079); conditions: BG1Luc4E2 cells, ERE-luciferase agonist, 22 h; activation: at 70.3 µM (top of the series) unless noted; note: nearly all actives have a fitted effect of over 20% in size; note: potency is the fitted concentration of half-maximal effect; for activation: % is set by controls: 0 for no effect and ±100 for the full control effect
# Aromatase (Homo sapiens) = Aromatase (Homo sapiens) (UniProt P11511); assay: qHTS assay to identify aromatase inhibitors (AID 743083); conditions: MCF-7 aro ERE, testosterone-driven ERE luciferase, 24 h; activity, negative = inhibition: at 70.3 µM (top of the series); note: potency is the fitted concentration of half-maximal effect; nearly all actives have a fitted effect of over 55% in size
# [12] = biological target: Estrogen receptor (Homo sapiens) (UniProt P03372); assay: qHTS assay to identify small molecule antagonists of the estrogen receptor alpha (ER-alpha) signaling pathway (AID 743069; active = well fitted curve in the direction sought with a large enough effect in the signal ratio in the repeat runs, not every such curve was filed as active; inconclusive = weak or mixed curves, or effect the other way; inactive = no such curve, though single readings can be large or run the other way; the % refers to the signal ratio; note: potency is the fitted concentration of half-maximal effect); conditions: HEK293 ER-alpha-UAS-bla, beta-lactamase ratio, antagonist mode; activity, negative = inhibition: at 69.4 µM (top of the series) unless noted
# Summary of the method: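 Estradiol-stimulated ER-alpha-UAS-bla HEK293 cells, 18 hr compound exposure at 37C. LiveBLAzer B/G substrate, 2 hr RT, fluorescence read.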
# [13] = qHTS assay to identify small molecule antagonists of the estrogen receptor alpha (ER-alpha) signaling pathway using the BG1 cell line (AID 743080; calls by dose curve;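 note: BG1 cells stimulated with 17beta-estradiol alongside compound; nearly all actives have a fitted effect of over 25% in size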; note: potency is the fitted concentration of half-maximal effect); conditions: BG1Luc4E2 ERE-luciferase antagonist mode, luminescence; activity change, negative = inhibition: at 70.3 µM (top of the series) unless noted
# Summary of the method: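 Luminescence from a 4×ERE-luciferase reporter in BG1-Luc-4E2 cells served as read-out. Cells, pre-cultured 5 days in stripped-serum phenol-red-free medium, were exposed to compound with 17beta-estradiol co-stimulation for 21.5 h at 37 C.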
# Tags give direction and shape of the fitted curve or compound fluorescence and quenching.
# UniProt P10275, sequence (P10275 whole entry, looked up): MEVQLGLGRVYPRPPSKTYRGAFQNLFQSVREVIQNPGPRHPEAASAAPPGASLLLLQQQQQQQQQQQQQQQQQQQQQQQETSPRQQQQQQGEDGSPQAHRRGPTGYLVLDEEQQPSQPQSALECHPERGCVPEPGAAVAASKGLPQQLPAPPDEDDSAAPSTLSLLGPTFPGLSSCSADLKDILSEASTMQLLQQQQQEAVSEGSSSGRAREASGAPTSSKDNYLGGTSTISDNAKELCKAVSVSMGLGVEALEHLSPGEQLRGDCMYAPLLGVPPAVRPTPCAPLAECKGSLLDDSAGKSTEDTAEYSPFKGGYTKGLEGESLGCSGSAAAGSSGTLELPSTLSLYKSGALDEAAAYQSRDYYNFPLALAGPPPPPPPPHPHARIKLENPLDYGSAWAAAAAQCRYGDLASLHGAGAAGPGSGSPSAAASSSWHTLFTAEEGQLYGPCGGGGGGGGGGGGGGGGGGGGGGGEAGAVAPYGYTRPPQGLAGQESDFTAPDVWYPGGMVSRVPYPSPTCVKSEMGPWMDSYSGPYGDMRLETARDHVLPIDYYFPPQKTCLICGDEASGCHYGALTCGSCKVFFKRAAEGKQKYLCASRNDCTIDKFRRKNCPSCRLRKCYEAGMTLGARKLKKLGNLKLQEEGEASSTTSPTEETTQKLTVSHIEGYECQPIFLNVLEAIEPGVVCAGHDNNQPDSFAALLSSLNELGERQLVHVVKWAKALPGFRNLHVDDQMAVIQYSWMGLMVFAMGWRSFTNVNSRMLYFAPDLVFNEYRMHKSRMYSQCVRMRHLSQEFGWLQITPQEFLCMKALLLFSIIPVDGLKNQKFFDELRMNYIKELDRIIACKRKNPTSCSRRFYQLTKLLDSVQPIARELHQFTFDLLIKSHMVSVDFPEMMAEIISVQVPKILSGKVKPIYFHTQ
# UniProt P03372, sequence (P03372 whole entry, looked up): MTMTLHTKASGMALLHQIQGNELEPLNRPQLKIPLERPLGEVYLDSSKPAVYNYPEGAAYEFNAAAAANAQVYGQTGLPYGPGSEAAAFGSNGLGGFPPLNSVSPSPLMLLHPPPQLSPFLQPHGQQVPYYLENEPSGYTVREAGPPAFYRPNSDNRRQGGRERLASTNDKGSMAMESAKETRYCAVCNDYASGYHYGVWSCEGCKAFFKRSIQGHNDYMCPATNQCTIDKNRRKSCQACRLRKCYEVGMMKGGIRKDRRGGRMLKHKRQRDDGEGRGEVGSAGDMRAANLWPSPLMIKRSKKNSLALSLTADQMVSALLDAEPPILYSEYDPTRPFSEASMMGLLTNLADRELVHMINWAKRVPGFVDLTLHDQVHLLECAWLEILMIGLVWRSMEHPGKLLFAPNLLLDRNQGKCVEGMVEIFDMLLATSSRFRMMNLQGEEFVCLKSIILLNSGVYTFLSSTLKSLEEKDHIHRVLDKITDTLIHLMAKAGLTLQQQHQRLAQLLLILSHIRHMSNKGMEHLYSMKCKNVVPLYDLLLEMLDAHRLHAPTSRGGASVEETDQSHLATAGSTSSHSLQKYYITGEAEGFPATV
# UniProt P11511, sequence (P11511 whole entry, looked up): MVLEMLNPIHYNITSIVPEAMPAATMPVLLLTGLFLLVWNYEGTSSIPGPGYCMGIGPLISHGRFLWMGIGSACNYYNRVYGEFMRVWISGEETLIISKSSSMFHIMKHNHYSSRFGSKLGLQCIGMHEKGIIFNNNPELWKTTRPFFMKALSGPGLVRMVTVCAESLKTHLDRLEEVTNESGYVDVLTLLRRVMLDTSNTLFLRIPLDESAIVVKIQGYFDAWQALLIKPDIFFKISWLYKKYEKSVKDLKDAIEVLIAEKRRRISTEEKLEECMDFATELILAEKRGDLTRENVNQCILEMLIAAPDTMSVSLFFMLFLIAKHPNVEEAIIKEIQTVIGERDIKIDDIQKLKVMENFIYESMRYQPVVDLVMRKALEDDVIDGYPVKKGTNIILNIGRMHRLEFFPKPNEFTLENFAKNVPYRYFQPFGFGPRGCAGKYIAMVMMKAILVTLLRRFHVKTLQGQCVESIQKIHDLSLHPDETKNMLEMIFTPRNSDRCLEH
smiles,measurement,setting,value
COc1cccc2c1C(=O)c1c(O)c3c(c(O)c1C2=O)C[C@@](O)(C(C)=O)C[C@@H]3O[C@H]1C[C@H](N)[C@H](O)[C@H](C)O1,Potency,[1],active: 23.7 nM and active: 21.8 nM
same,Potency,[2],"inconclusive: 1.07 µM [cytotoxic, full curve] and active: 22 µM"
same,Potency,[3],"inconclusive: 17.6 µM [cytotoxic, partial curve] and active: 54.8 µM"
same,Potency,[4],"inconclusive: 0.488 µM [inhibitor, partial curve, poor fit]"
same,activation,[4],inconclusive: -8.56% [phenotype inactive]
same,Potency,[5],"inconclusive: 55.3 µM [cytotoxic, single point]"
same,Potency,[6],active: 21.1 µM and active: 27.5 µM
C[C@H]1[C@H]2CC[C@H]3[C@@H]4CC=C5C[C@@H](N(C)C)CC[C@]5(C)[C@H]4CC[C@]23CN1C,Potency,[1],active: 15 µM
same,"activity change, negative = inhibition",[7],inconclusive: 19.6%
same,Potency,[8],"inconclusive: 23.7 µM [inhibitor, partial curve, poor fit]"
same,Potency,[6],"inconclusive: 18.8 µM [cytotoxic, partial curve]"
CCc1ccc(C(=O)C(C)CN2CCCCC2)cc1 (centres undefined),Potency,[1],active: 11.9 µM
same,Potency,[3],"inconclusive: 33.5 µM [cytotoxic, partial curve, poor fit]"
same,Potency,[9],"inconclusive: 33.5 µM [inhibitor, single point]"
CCCC(C)c1ccccc1O (centres undefined),Potency,[1],active: 48.6 µM
same,Potency,[2],"inconclusive: 49 µM [cytotoxic, partial curve]"
same,Potency,[10],"inconclusive: 68.6 µM [cytotoxic, single point]"
same,Potency,[9],"inconclusive: 68.6 µM [inhibitor, single point]"
same,Potency,[5],inactive
same,activation,[11],inconclusive: 8.67% [phenotype inactive]
same,Potency,[6],inactive
same,Potency,Aromatase (Homo sapiens),"inconclusive: 68.6 µM [inhibitor, single point]"
COc1ccc(N=[N+]([O-])c2ccc(OC)cc2)cc1,Potency,[1],inactive
same,Potency,[2],inactive
same,Potency,[3],inactive
same,Potency,[9],"inconclusive: 21.5 µM [inhibitor, partial curve]"
same,Potency,[12],"inconclusive: 0.0862 µM [activator, full curve, poor fit]"
same,Potency,[11],active: 0.0679 µM
same,Potency,[13],"inconclusive: 0.0215 µM [rising, full curve]"
Cn1c(=O)c2[nH]c(Br)nc2n(C)c1=O,Potency,[1],"inconclusive: 26.6 µM [rising, partial curve, poor fit]"
same,Potency,[10],"inconclusive: 33.5 µM [cytotoxic, single point]"
O=C1c2ccccc2-c2ccccc21,Potency,[1],"inconclusive: 15.8 µM [rising, partial curve, poor fit]"
same,Potency,[7],inactive
CC(=O)CC(=O)Nc1ccccc1C,Potency,[1],inactive
same,Potency,[3],inactive
same,Potency,[10],"inconclusive: 0.551 µM [rising, single point]"
same,Potency,[12],inactive
same,activation,[11],inconclusive: 18.5% [phenotype inactive] [at 95 µM]
Nc1nnc(-c2ccc([N+](=O)[O-])o2)o1,Potency,[1],active: 24.3 µM
same,Potency,[2],"inconclusive: 38.9 µM [cytotoxic, partial curve, poor fit]"
same,Potency,[3],active: 61.1 µM
same,Potency,[10],active: 61.1 µM
same,Potency,[5],inactive
same,Potency,[11],"inconclusive: 48.6 µM [inhibitor, partial curve]"
same,Potency,[13],"inconclusive: 68.6 µM [falling, single point]"
same,Potency,[6],inconclusive: 68.6 µM [cytotoxic]
NC(CO)(CO)CO,Potency,[1],inactive
same,Potency,[2],inactive
same,Potency,[10],"inconclusive: 1.22 µM [rising, single point]"
same,Potency,[4],active: 9.69 µM
same,Potency,[13],inactive
CCC(Cl)C(Cl)C(Cl)CC(Cl)C(Cl)C(C)Cl (centres undefined),Potency,[1],"inconclusive: 68.6 µM [cytotoxic, single point]"
same,Potency,[10],"inconclusive: 68.6 µM [cytotoxic, single point]"
same,Potency,[9],"inconclusive: 68.6 µM [inhibitor, single point]"
O=C(CCCN1CCC(O)(c2cccc(C(F)(F)F)c2)CC1)c1ccc(F)cc1,Potency,[1],active: 10.6 µM
same,Potency,[3],"inconclusive: 29.8 µM [cytotoxic, partial curve, poor fit]"
same,Potency,[10],"inconclusive: 33.5 µM [cytotoxic, single point]"
same,Potency,[5],inactive
same,Potency,[6],"inconclusive: 2.98 µM [cytotoxic, full curve]"
